The target of assay [1] is human B7H3 (ECD)-His (SinoBiological, 11188-H08H) (human) (UniProt Q5ZPR3). Put plainly: SPR, human B7H3 (ECD)-His.
The target in assay [2] is native B7H3 on cells (UniProt Q5ZPR3). Put plainly: flow cytometry on HEK293 cells, anti-human IgG Fc secondary.
For assay [3], the target named is human B7H3 (ECD)-His (SinoBiological, 11188-H08H) (human) (UniProt Q5ZPR3). Put plainly: SPR (antigen not named in this example).
In assay [4] the target is native B7H3 on cells (UniProt Q5ZPR3). Put plainly: flow cytometry on H358 cells, goat anti-human IgG secondary.
Assay [5] has as its target human B7H3 (ECD)-His (SinoBiological, 11188-H08H) (human) (UniProt Q5ZPR3). Put plainly: SPR (antigen printed only as human B7H3).
The target is the same in assay [6]. Put plainly: SPR, human B7H3 (ECD)-His. The source holds these as a separate data set.

B1: BGA-056 (Fc fusion)
chain: EVQLLESGGGLVQPGGSLRLSCAASGFTFSDYHMSWVRQAPGKGLEWVSGILNTGLSPTYAATVTGRFTISRDNAKNTLYLSMNSLKPEDTAVYYCAQGYYRATPSQANRGQGTQVTVSS[human IgG1 Fc with C220S (EU numbers) left out]
Take B1: in assay [1], the Kd came to 0.614 nM, the off-rate (koff) was 0.000107 s⁻¹ and the kon turned out to be 175000 M⁻¹ s⁻¹. Moreover, in the assay with native B7H3 on cells [2], the EC50 stood at 0.0219 µg/mL. In assay [3], the KD ratio to BGA-056 chimeric was determined as 1, the Kd came to 0.1 nM and the off-rate constant (koff) is 0.000103 s⁻¹. In addition, the concentration giving a half-maximal response (EC50) with native B7H3 on cells [4] worked out at 0.452 µg/mL.

B2: BGA-174 (Fc fusion)
chain: EVQLLESGGGLVQPGGSLRLSCAASGFTFSDYHMSWVRQAPGKGLEWVSGILNTGLSPTYAATVTGRFTISRDNSKNTLYLQMNSLRAEDTAVYYCAQGYYRATPSQANRGQGTLVTVSS[human IgG1 Fc with C220S (EU numbers) left out]
Take B2: in assay [3], the KD ratio to BGA-056 chimeric was 1.1, the Kd was determined as 0.11 nM, the off-rate (koff) was found to be 0.000106 s⁻¹ and the on-rate constant (kon) was 963000 M⁻¹ s⁻¹. For the same molecule, in the assay with native B7H3 on cells [4], the half-maximal effective concentration (EC50) stood at 0.289 µg/mL.

B3: BGA-1741 (Fc fusion)
chain: EVQLLESGGGLVQPGGSLRLSCAASGFTFSDYHMSWVRQAPGKGLEWVSGILNTGLSPTYAATVTGRFTISRDNSKNTLYLQMNSLRAEDTAVYYCAKGYYRATPSQANRGQGTLVTVSS[human IgG1 Fc with C220S (EU numbers) left out]
Regarding B3, in assay [3], the KD ratio to BGA-056 chimeric is 2.06, the equilibrium dissociation constant (Kd) stood at 0.206 nM, the off-rate constant (koff) came to 0.000171 s⁻¹ and the association rate constant (kon) worked out at 828000 M⁻¹ s⁻¹.

B4: BGA-1742 (Fc fusion)
chain: EVQLLESGGGLVQPGGSLRLSCAASGFTFSDYHMSWVRQAPGKGLEWVSGILNTGLSPTYAATVTGRFTISRDNSKNTLYLQMNSLRAEDTAVYYCAQGYYRATPSQANWGQGTLVTVSS[human IgG1 Fc with C220S (EU numbers) left out]
For the molecule B4, in assay [3], the KD ratio to BGA-056 chimeric is 4.76, the Kd is 0.476 nM, the koff worked out at 0.0004 s⁻¹ and the kon worked out at 840000 M⁻¹ s⁻¹.

B5: BGA-026 (Fc fusion)
chain: EVQLVESGGGLVQTGDSLRLSCAASPRTFQTYFMGWFRQAPGKEREFVSVINWSGGTSYYKDSVKGRFTISRDNAKNTVYLQMNNLKPEDTAVYYCAAKGSGTYDREGEYDYWGQGTQVTVSS[human IgG1 Fc with C220S (EU numbers) left out]
Consider B5, for which, in assay [1], the Kd is 1.13 nM, the koff came out at 0.000278 s⁻¹ and the on-rate (kon) was found to be 247000 M⁻¹ s⁻¹. Moreover, in assay [5], the KD ratio to BGA-026 chimeric turned out to be 1, the Kd was 0.486 nM and the koff came to 0.000342 s⁻¹. In assay [6], the KD ratio to BGA-026 chimeric stood at 1, the Kd was 0.262 nM, the dissociation rate constant (koff) turned out to be 0.000255 s⁻¹ and the kon was 974000 M⁻¹ s⁻¹. The molecule also displayed a concentration for a half-maximal effect (EC50) with native B7H3 on cells [4] of 0.263 µg/mL.

B6: BGA-2046 (Fc fusion)
chain: EVQLVESGGGLVQPGGSLRLSCAASPRTFQTYFMGWFRQAPGKGREWVSVINWSGGTSYYKDSVKGRFTISRDNSKNTLYLQMNSLRAEDTAVYYCAAKGSGTYDREGEYDYWGQGTLVTVSS[human IgG1 Fc with C220S (EU numbers) left out]
With B6, in assay [5], the KD ratio to BGA-026 chimeric was determined as 1.26, the Kd came out at 0.612 nM, the koff was found to be 0.000267 s⁻¹ and the kon was 436000 M⁻¹ s⁻¹.

B7: BGA-2042 (Fc fusion)
chain: EVQLVESGGGLVQPGGSLRLSCAASPRTFQTYFMGWFRQAPGKELEWVSVINWSGGTSYYKDSVKGRFTISRDNSKNTLYLQMNSLRAEDTAVYYCAAKGSGTYDREGEYDYWGQGTLVTVSS[human IgG1 Fc with C220S (EU numbers) left out]
Regarding B7, in assay [5], the KD ratio to BGA-026 chimeric was determined as 1.7, the Kd came to 0.825 nM, the off-rate constant (koff) came to 0.00037 s⁻¹ and the kon is 448000 M⁻¹ s⁻¹. This molecule displayed an EC50 with native B7H3 on cells [4] of 0.357 µg/mL.

B8: BGA-1548 (Fc fusion)
chain: EVQLVESGGGLVQPGGSLRLSCAASPRTFQTYFMGWFRQAPGKEREFVSVINWSGGTSYYKDSVKGRFTISRDNSKNTLYLQMNSLRAEDTAVYYCAAKGSGTYDREGEYDYWGQGTLVTVSS[human IgG1 Fc with C220S (EU numbers) left out]
For B8, in assay [6], the KD ratio to BGA-026 chimeric is 0.87, the dissociation constant Kd was 0.227 nM, the koff came out at 0.000205 s⁻¹ and the association rate constant (kon) was determined as 901000 M⁻¹ s⁻¹.

B9: BGA-1547 (Fc fusion)
chain: EVQLVESGGGLVQPGGSLRLSCAASPRTFQTYFMGWFRQAPGKEREWVSVINWSGGTSYYKDSVKGRFTISRDNSKNTVYLQMNSLRAEDTAVYYCAAKGSGTYDREGEYDYWGQGTLVTVSS[human IgG1 Fc with C220S (EU numbers) left out]
Consider B9, for which, in assay [6], the KD ratio to BGA-026 chimeric was 1.01, the Kd worked out at 0.265 nM, the koff amounted to 0.000438 s⁻¹ and the on-rate constant (kon) came to 1.65e+06 M⁻¹ s⁻¹.

B10: BGA-1546 (Fc fusion)
chain: EVQLVESGGGLVQPGGSLRLSCAASPRTFQTYFMGWFRQAPGKELEFVSVINWSGGTSYYKDSVKGRFTISRDNSKNTVYLQMNSLRAEDTAVYYCAAKGSGTYDREGEYDYWGQGTLVTVSS[human IgG1 Fc with C220S (EU numbers) left out]
Take B10: in assay [6], the KD ratio to BGA-026 chimeric was determined as 1.13, the Kd worked out at 0.295 nM, the koff is 0.000273 s⁻¹ and the on-rate constant (kon) came out at 924000 M⁻¹ s⁻¹.

B11: BGA-1545 (Fc fusion)
chain: EVQLVESGGGLVQPGGSLRLSCAASPRTFQTYFMGWFRQAPGKGREFVSVINWSGGTSYYKDSVKGRFTISRDNSKNTVYLQMNSLRAEDTAVYYCAAKGSGTYDREGEYDYWGQGTLVTVSS[human IgG1 Fc with C220S (EU numbers) left out]
B11: in assay [6], the KD ratio to BGA-026 chimeric came out at 1, the dissociation constant (Kd) is 0.263 nM, the koff amounted to 0.000236 s⁻¹ and the on-rate (kon) is 898000 M⁻¹ s⁻¹.

B12: BGA-1542 (Fc fusion)
chain: EVQLVESGGGLVQPGGSLRLSCAASPFTFQTYFMGWFRQAPGKEREFVSVINWSGGTSYYKDSVKGRFTISRDNSKNTVYLQMNSLRAEDTAVYYCAAKGSGTYDREGEYDYWGQGTLVTVSS[human IgG1 Fc with C220S (EU numbers) left out]
Consider B12, for which, in assay [6], the KD ratio to BGA-026 chimeric stood at 1.66, the Kd is 0.434 nM, the off-rate (koff) was 0.000539 s⁻¹ and the association rate constant (kon) worked out at 1.24e+06 M⁻¹ s⁻¹.

B13: BGA-1543 (Fc fusion)
chain: EVQLVESGGGLVQPGGSLRLSCAASPRTFSTYFMGWFRQAPGKEREFVSVINWSGGTSYYKDSVKGRFTISRDNSKNTVYLQMNSLRAEDTAVYYCAAKGSGTYDREGEYDYWGQGTLVTVSS[human IgG1 Fc with C220S (EU numbers) left out]
Consider B13, for which, in assay [6], the KD ratio to BGA-026 chimeric amounted to 1.91, the Kd is 0.501 nM, the dissociation rate constant (koff) amounted to 0.000616 s⁻¹ and the kon was 1.23e+06 M⁻¹ s⁻¹.

B14: BGA-154 (Fc fusion)
chain: EVQLVESGGGLVQPGGSLRLSCAASPRTFQTYFMGWFRQAPGKEREFVSVINWSGGTSYYKDSVKGRFTISRDNSKNTVYLQMNSLRAEDTAVYYCAAKGSGTYDREGEYDYWGQGTLVTVSS[human IgG1 Fc with C220S (EU numbers) left out]
Take B14: in assay [6], the KD ratio to BGA-026 chimeric worked out at 0.9, the Kd is 0.236 nM, the dissociation rate constant (koff) was found to be 0.000201 s⁻¹ and the on-rate (kon) came out at 853000 M⁻¹ s⁻¹.

B15: BGA-2041 (Fc fusion)
chain: EVQLVESGGGLVQPGGSLRLSCAASPRTFQTYFMGWFRQAPGKGLEWVSVINWSGGTSYYKDSVKGRFTISRDNSKNTLYLQMNSLRAEDTAVYYCAAKGSGTYDREGEYDYWGQGTLVTVSS[human IgG1 Fc with C220S (EU numbers) left out]
Consider B15, for which, in assay [5], the KD ratio to BGA-026 chimeric is 1.94, the Kd was 0.944 nM, the koff was 0.000388 s⁻¹ and the kon stood at 411000 M⁻¹ s⁻¹.

B16: BGA-2043 (Fc fusion)
chain: EVQLVESGGGLVQPGGSLRLSCAASPFTFQTYFMGWFRQAPGKELEWVSVINWSGGTSYYKDSVKGRFTISRDNSKNTLYLQMNSLRAEDTAVYYCAAKGSGTYDREGEYDYWGQGTLVTVSS[human IgG1 Fc with C220S (EU numbers) left out]
Consider B16, for which, in assay [5], the KD ratio to BGA-026 chimeric amounted to 5.21, the equilibrium dissociation constant (Kd) came to 2.53 nM, the koff came to 0.00105 s⁻¹ and the kon was 415000 M⁻¹ s⁻¹.

B17: BGA-2044 (Fc fusion)
chain: EVQLVESGGGLVQPGGSLRLSCAASPRTFSTYFMGWFRQAPGKELEWVSVINWSGGTSYYKDSVKGRFTISRDNSKNTLYLQMNSLRAEDTAVYYCAAKGSGTYDREGEYDYWGQGTLVTVSS[human IgG1 Fc with C220S (EU numbers) left out]
On to B17, for which, in assay [5], the KD ratio to BGA-026 chimeric amounted to 19, the Kd stood at 9.25 nM, the koff turned out to be 0.00496 s⁻¹ and the on-rate (kon) came out at 537000 M⁻¹ s⁻¹.

B18: BGA-2045 (Fc fusion)
chain: EVQLVESGGGLVQPGGSLRLSCAASPFTFSTYFMGWFRQAPGKELEWVSVINWSGGTSYYKDSVKGRFTISRDNSKNTLYLQMNSLRAEDTAVYYCAAKGSGTYDREGEYDYWGQGTLVTVSS[human IgG1 Fc with C220S (EU numbers) left out]
In the case of B18, in assay [5], the KD ratio to BGA-026 chimeric was determined as 46.3, the Kd came out at 22.5 nM, the koff came out at 0.0146 s⁻¹ and the association rate constant (kon) came out at 646000 M⁻¹ s⁻¹.

The record behind these values is patent publication US20260085122A1.
